Measured values as given in paper PMC4256266.
No constants are given. Whether binding was seen depends on the method and setting. For part of these data: Binding seen in cells or lysates may run through a third protein. Some entries that bind do so weakly or less than the wild type. Blank lines part the entries; values can stand above or below the substance they belong to.

The chains behind the UniProt entries cited, without tags or fusion partners.
UniProt P12004: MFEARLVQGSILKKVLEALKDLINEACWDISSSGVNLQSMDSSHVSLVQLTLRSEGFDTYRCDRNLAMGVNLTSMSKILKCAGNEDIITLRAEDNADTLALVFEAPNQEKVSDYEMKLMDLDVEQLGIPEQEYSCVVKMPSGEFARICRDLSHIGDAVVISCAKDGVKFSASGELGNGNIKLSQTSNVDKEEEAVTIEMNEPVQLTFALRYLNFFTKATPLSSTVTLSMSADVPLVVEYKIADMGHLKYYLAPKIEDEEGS
UniProt Q03267: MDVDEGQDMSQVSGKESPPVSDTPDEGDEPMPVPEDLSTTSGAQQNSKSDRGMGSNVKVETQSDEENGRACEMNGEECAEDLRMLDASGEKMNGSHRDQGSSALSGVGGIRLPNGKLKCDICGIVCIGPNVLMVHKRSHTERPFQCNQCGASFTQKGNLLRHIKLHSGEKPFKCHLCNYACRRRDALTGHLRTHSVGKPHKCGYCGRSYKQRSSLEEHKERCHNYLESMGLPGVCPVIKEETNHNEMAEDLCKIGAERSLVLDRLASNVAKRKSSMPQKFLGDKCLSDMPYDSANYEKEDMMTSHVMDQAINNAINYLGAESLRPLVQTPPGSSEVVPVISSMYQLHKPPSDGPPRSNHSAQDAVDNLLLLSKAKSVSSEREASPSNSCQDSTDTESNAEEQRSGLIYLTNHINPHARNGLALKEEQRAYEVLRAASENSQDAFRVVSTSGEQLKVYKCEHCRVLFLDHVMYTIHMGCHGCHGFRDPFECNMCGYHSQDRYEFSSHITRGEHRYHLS

Assays:
[1] = biological target: IKAROS (endogenous, Jurkat) (human (endogenous in Jurkat)) (UniProt Q13422); test: SEC; nuclear extracts of wild type Jurkat cells fractionated on a Superose 6 10/300GL column; fractions analysed by western blot
[2] = biological target: IKAROS (endogenous, Jurkat) (human (endogenous in Jurkat)) (UniProt Q13422); test: co-IP; whole cell extracts of Ikaros knock-down (Ik-sh) or non-target control (Nt-sh) Jurkat cells, endogenous proteins
[3] = biological target: PCNA (human (endogenous in Jurkat)) (UniProt P12004); test: co-IP; Jurkat cell nuclear extracts, endogenous proteins; IP with antibodies to IKAROS, BRD4, Mi2, RBBP4, MTA2, MBD3, CDK9 or CYCT1, IgG control; Mi2-CDK9 also with lysis buffer containing 1 µg/ml DNase1
[4] = biological target: IKAROS (endogenous, Jurkat) (human (endogenous in Jurkat)) (UniProt Q13422); test: as above
[5] = biological target: IKAROS (endogenous, G1E2) (mouse (endogenous in G1E2)) (UniProt Q03267); test: co-IP; G1E2 nuclear extracts, endogenous proteins; IP with IKAROS antibodies or IgG, blot PP1α
[6] = biological target: CCNT1 (CYCLIN T1) (human (endogenous in Jurkat)) (UniProt O60563); test: co-IP; Jurkat cell nuclear extracts, endogenous proteins; IP with antibodies to IKAROS, BRD4, Mi2, RBBP4, MTA2, MBD3, CDK9 or CYCT1, IgG control; Mi2-CDK9 also with lysis buffer containing 1 µg/ml DNase1
[7] = biological target: CDK9 (human (endogenous in Jurkat)) (UniProt P50750); test: as above

binding [1]: binds | binding [2]: binds | binding [3]: no binding | binding [4]: binds
Substance: CDK9 (from UniProt P50750 1-372) (enzyme)

binding [5]: binds
Substance: PP1α (endogenous, G1E2) (from UniProt P62137 1-330) (enzyme)

binding [1]: binds
Substance: Protein Phosphatase 1α (PP1α) (from UniProt P62136 1-330) (enzyme)

binding [6]: binds | binding [7]: binds | binding [3]: no binding
Substance: RBBP4 (from UniProt Q09028 1-425)
